# Test results from the supplement of paper PMC8728848.
# Some of the results follow.
# B1: MGL6A (Homo sapiens) (protein)
# chain: MTRTYENFQYLENKVKVQGFKNGPLPLQSLLQRLCSGPCHLLLSLGLGLLLLVIICVVGFQNSKFQRDLVTLRTDFSNFTSNTVAEIQALTSQGSSLEETIASLKAEVEGFKQERQAVHSEMLLRVQQLVQDLKKLTCQVATLNNNGEEASTEGTCCPVNWVEHQDSCYWFSHSGMSWAEAEKYCQLKNAHLVVINSREEQNFVQKYLGSAYTWMGLSDPEGAWKWVDGTDYATGFQNWKPGQPDDWQGHGLGGGEDCAHFHPDGRWNDDVCQRPYHWVCEAGLGQTSQESH
# Columns and labels:
# Assay in all cases: glycan array binding signal (z-score within array); higher = stronger binding
# Conditions in all cases: glycan notation: IUPAC condensed, linker removed
# GlcNAc(b1-3)Fuc = molecular target: GlcNAc(b1-3)Fuc
# Summary of the method: (§1)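 Glycan array data were curated from 3228 arrays in the Consortium for Functional Glycomics database and kept only where the protein sequence was available. Glycan names were converted to IUPAC-condensed notation, and columns mapping to the same glycan were averaged. The binding signal is a within-array Z-score, averaged across arrays of the same protein sequence at different concentrations or buffers and across linkers. Negative Z-scores can be read as non-binding.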
# GlcNAc(b1-3)Gal = molecular target: GlcNAc(b1-3)Gal
# Summary of the method: as §1
# [1] = molecular target: GlcNAc(b1-3)Gal(b1-3)GalNAc
# Summary of the method: as §1
# GlcNAc(b1-3)Gal(b1-4)Glc = molecular target: GlcNAc(b1-3)Gal(b1-4)Glc
# Summary of the method: as §1
# [2] = molecular target: GlcNAc(b1-3)Gal(b1-4)GlcNAc
# Summary of the method: as §1
# [3] = molecular target: GlcNAc(b1-3)Gal(b1-4)GlcNAc(b1-2)Man(a1-3)[GlcNAc(b1-3)Gal(b1-4)GlcNAc(b1-2)Man(a1-6)]Man(b1-4)GlcNAc(b1-4)GlcNAc
# Summary of the method: as §1
# [4] = molecular target: GlcNAc(b1-3)Gal(b1-4)GlcNAc(b1-2)Man(a1-3)[GlcNAc(b1-3)Gal(b1-4)GlcNAc(b1-2)Man(a1-6)]Man(b1-4)GlcNAc(b1-4)[Fuc(a1-6)]GlcNAc
# Summary of the method: as §1
# [5] = molecular target: GlcNAc(b1-3)Gal(b1-4)GlcNAc(b1-2)[GlcNAc(b1-3)Gal(b1-4)GlcNAc(b1-6)]Man(a1-6)[GlcNAc(b1-3)Gal(b1-4)GlcNAc(b1-2)Man(a1-3)]Man(b1-4)GlcNAc(b1-4)GlcNAc
# Summary of the method: as §1
# [6] = molecular target: GlcNAc(b1-3)Gal(b1-4)GlcNAc(b1-3)Gal(b1-4)GlcNAc
# Summary of the method: as §1
# [7] = molecular target: GlcNAc(b1-3)Gal(b1-4)GlcNAc(b1-3)Gal(b1-4)GlcNAc(b1-2)Man(a1-3)[GlcNAc(b1-3)Gal(b1-4)GlcNAc(b1-3)Gal(b1-4)GlcNAc(b1-2)Man(a1-6)]Man(b1-4)GlcNAc(b1-4)GlcNAc
# Summary of the method: as §1
# [8] = molecular target: GlcNAc(b1-3)Gal(b1-4)GlcNAc(b1-3)Gal(b1-4)GlcNAc(b1-2)Man(a1-3)[GlcNAc(b1-3)Gal(b1-4)GlcNAc(b1-3)Gal(b1-4)GlcNAc(b1-2)Man(a1-6)]Man(b1-4)GlcNAc(b1-4)[Fuc(a1-6)]GlcNAc
# Summary of the method: as §1
# [9] = molecular target: GlcNAc(b1-3)Gal(b1-4)GlcNAc(b1-3)Gal(b1-4)GlcNAc(b1-2)[GlcNAc(b1-3)Gal(b1-4)GlcNAc(b1-3)Gal(b1-4)GlcNAc(b1-6)]Man(a1-6)[GlcNAc(b1-3)Gal(b1-4)GlcNAc(b1-3)Gal(b1-4)GlcNAc(b1-2)Man(a1-3)]Man(b1-4)GlcNAc(b1-4)[Fuc(a1-6)]GlcNAc
# Summary of the method: as §1
# [10] = molecular target: GlcNAc(b1-3)Gal(b1-4)GlcNAc(b1-3)Gal(b1-4)GlcNAc(b1-3)Gal(b1-4)GlcNAc(b1-2)Man(a1-3)[GlcNAc(b1-3)Gal(b1-4)GlcNAc(b1-3)Gal(b1-4)GlcNAc(b1-3)Gal(b1-4)GlcNAc(b1-2)Man(a1-6)]Man(b1-4)GlcNAc(b1-4)GlcNAc
# Summary of the method: as §1
# [11] = molecular target: GlcNAc(b1-3)Gal(b1-4)GlcNAc(b1-3)Gal(b1-4)GlcNAc(b1-3)Gal(b1-4)GlcNAc(b1-2)Man(a1-3)[GlcNAc(b1-3)Gal(b1-4)GlcNAc(b1-3)Gal(b1-4)GlcNAc(b1-3)Gal(b1-4)GlcNAc(b1-2)Man(a1-6)]Man(b1-4)GlcNAc(b1-4)[Fuc(a1-6)]GlcNAc
# Summary of the method: as §1
# [12] = molecular target: GlcNAc(b1-3)Gal(b1-4)GlcNAc(b1-3)Gal(b1-4)GlcNAc(b1-3)Gal(b1-4)GlcNAc(b1-2)[GlcNAc(b1-3)Gal(b1-4)GlcNAc(b1-3)Gal(b1-4)GlcNAc(b1-3)Gal(b1-4)GlcNAc(b1-6)]Man(a1-6)[GlcNAc(b1-3)Gal(b1-4)GlcNAc(b1-3)Gal(b1-4)GlcNAc(b1-3)Gal(b1-4)GlcNAc(b1-2)Man(a1-3)]Man(b1-4)GlcNAc(b1-4)[Fuc(a1-6)]GlcNAc
# Summary of the method: as §1
# [13] = molecular target: GlcNAc(b1-3)Gal(b1-4)GlcNAc(b1-3)Gal(b1-4)GlcNAc(b1-3)Gal(b1-4)GlcNAc(b1-3)Gal(b1-4)GlcNAc(b1-2)Man(a1-3)[GlcNAc(b1-3)Gal(b1-4)GlcNAc(b1-3)Gal(b1-4)GlcNAc(b1-3)Gal(b1-4)GlcNAc(b1-3)Gal(b1-4)GlcNAc(b1-2)Man(a1-6)]Man(b1-4)GlcNAc(b1-4)GlcNAc
# Summary of the method: as §1
# [14] = molecular target: GlcNAc(b1-3)Gal(b1-4)GlcNAc(b1-3)Gal(b1-4)GlcNAc(b1-3)Gal(b1-4)GlcNAc(b1-3)Gal(b1-4)GlcNAc(b1-2)Man(a1-3)[GlcNAc(b1-3)Gal(b1-4)GlcNAc(b1-3)Gal(b1-4)GlcNAc(b1-3)Gal(b1-4)GlcNAc(b1-3)Gal(b1-4)GlcNAc(b1-2)Man(a1-6)]Man(b1-4)GlcNAc(b1-4)[Fuc(a1-6)]GlcNAc
# Summary of the method: as §1
# [15] = molecular target: GlcNAc(b1-3)Gal(b1-4)GlcNAc(b1-3)Gal(b1-4)GlcNAc(b1-3)Gal(b1-4)GlcNAc(b1-3)Gal(b1-4)GlcNAc(b1-2)[GlcNAc(b1-3)Gal(b1-4)GlcNAc(b1-3)Gal(b1-4)GlcNAc(b1-3)Gal(b1-4)GlcNAc(b1-3)Gal(b1-4)GlcNAc(b1-6)]Man(a1-6)[GlcNAc(b1-3)Gal(b1-4)GlcNAc(b1-3)Gal(b1-4)GlcNAc(b1-3)Gal(b1-4)GlcNAc(b1-3)Gal(b1-4)GlcNAc(b1-2)Man(a1-3)]Man(b1-4)GlcNAc(b1-4)[Fuc(a1-6)]GlcNAc
# Summary of the method: as §1
# [16] = molecular target: GlcNAc(b1-3)Gal(b1-4)GlcNAc(b1-3)Gal(b1-4)GlcNAc(b1-3)GalNAc
# Summary of the method: as §1
# [17] = molecular target: GlcNAc(b1-3)Gal(b1-4)GlcNAc(b1-3)GalNAc
# Summary of the method: as §1
# [18] = molecular target: GlcNAc(b1-3)Gal(b1-4)GlcNAc(b1-3)[GlcNAc(b1-3)Gal(b1-4)GlcNAc(b1-3)]GalNAc
# Summary of the method: as §1
# [19] = molecular target: GlcNAc(b1-3)Gal(b1-4)GlcNAc(b1-6)[Gal(b1-3)]GalNAc
# Summary of the method: as §1
# [20] = molecular target: GlcNAc(b1-3)Gal(b1-4)GlcNAc(b1-6)[GlcNAc(b1-3)Gal(b1-3)]GalNAc
# Summary of the method: as §1
# [21] = molecular target: GlcNAc(b1-3)Gal(b1-4)GlcNAc(b1-6)[GlcNAc(b1-3)]Gal(b1-4)GlcNAc
# Summary of the method: as §1
# GlcNAc(b1-3)GalNAc = molecular target: GlcNAc(b1-3)GalNAc
# Summary of the method: as §1
# GlcNAc(b1-3)Man = molecular target: GlcNAc(b1-3)Man
# Summary of the method: as §1
# [22] = molecular target: GlcNAc(b1-3)[GlcNAc(b1-4)][GlcNAc(b1-6)]GlcNAc
# Summary of the method: as §1
# [23] = molecular target: GlcNAc(b1-3)[GlcNAc(b1-6)]Gal(b1-4)GlcNAc
# Summary of the method: as §1
# [24] = molecular target: GlcNAc(b1-3)[GlcNAc(b1-6)]GalNAc
# Summary of the method: as §1
# [25] = molecular target: GlcNAc(b1-4)Gal(b1-4)GlcNAc
# Summary of the method: as §1
# GlcNAc(b1-4)GlcNAc = molecular target: GlcNAc(b1-4)GlcNAc
# Summary of the method: as §1
# [26] = molecular target: GlcNAc(b1-4)GlcNAc(b1-4)GlcNAc
# Summary of the method: as §1
# [27] = molecular target: GlcNAc(b1-4)GlcNAc(b1-4)GlcNAc(b1-4)GlcNAc(b1-4)GlcNAc
# Summary of the method: as §1
# [28] = molecular target: GlcNAc(b1-4)GlcNAc(b1-4)GlcNAc(b1-4)GlcNAc(b1-4)GlcNAc(b1-4)GlcNAc
# Summary of the method: as §1
# [29] = molecular target: GlcNAc(b1-4)[GlcNAc(b1-6)]GalNAc
# Summary of the method: as §1
# [30] = molecular target: GlcNAc(b1-6)Gal(b1-4)GlcNAc
# Summary of the method: as §1
# GlcNAc(b1-6)GalNAc = molecular target: GlcNAc(b1-6)GalNAc
# Summary of the method: as §1
binder,measurement,setting,value
B1,glycan array binding signal (z-score),GlcNAc(b1-3)Fuc,-0.203
same,glycan array binding signal (z-score),GlcNAc(b1-3)Gal,-0.128
same,glycan array binding signal (z-score),[1],-0.197
same,glycan array binding signal (z-score),GlcNAc(b1-3)Gal(b1-4)Glc,-0.269
same,glycan array binding signal (z-score),[2],-0.086
same,glycan array binding signal (z-score),[3],-0.26
same,glycan array binding signal (z-score),[4],-0.285
same,glycan array binding signal (z-score),[5],-0.169
same,glycan array binding signal (z-score),[6],0.5
same,glycan array binding signal (z-score),[7],-0.235
same,glycan array binding signal (z-score),[8],-0.216
same,glycan array binding signal (z-score),[9],-0.226
same,glycan array binding signal (z-score),[10],-0.223
same,glycan array binding signal (z-score),[11],-0.246
same,glycan array binding signal (z-score),[12],-0.213
same,glycan array binding signal (z-score),[13],-0.262
same,glycan array binding signal (z-score),[14],-0.225
same,glycan array binding signal (z-score),[15],-0.218
same,glycan array binding signal (z-score),[16],-0.224
same,glycan array binding signal (z-score),[17],-0.327
same,glycan array binding signal (z-score),[18],-0.284
same,glycan array binding signal (z-score),[19],-0.282
same,glycan array binding signal (z-score),[20],-0.261
same,glycan array binding signal (z-score),[21],-0.266
same,glycan array binding signal (z-score),GlcNAc(b1-3)GalNAc,-0.185
same,glycan array binding signal (z-score),GlcNAc(b1-3)Man,-0.243
same,glycan array binding signal (z-score),[22],-0.289
same,glycan array binding signal (z-score),[23],-0.28
same,glycan array binding signal (z-score),[24],-0.288
same,glycan array binding signal (z-score),[25],-0.292
same,glycan array binding signal (z-score),GlcNAc(b1-4)GlcNAc,-0.303
same,glycan array binding signal (z-score),[26],-0.268
same,glycan array binding signal (z-score),[27],-0.293
same,glycan array binding signal (z-score),[28],-0.3
same,glycan array binding signal (z-score),[29],-0.344
same,glycan array binding signal (z-score),[30],-0.251
same,glycan array binding signal (z-score),GlcNAc(b1-6)GalNAc,3.72
